This is an account of results in article PMC12136788.

The list shows a part of the results.

The chains are these.
T1: UNK ZnF1-3 (human, UniProt Q9C0B0 31-174)
T1 sequence: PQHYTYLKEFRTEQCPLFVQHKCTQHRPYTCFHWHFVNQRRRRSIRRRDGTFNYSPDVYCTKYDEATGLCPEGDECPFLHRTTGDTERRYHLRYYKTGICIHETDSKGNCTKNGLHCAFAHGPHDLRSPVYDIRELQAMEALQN

B1: chr13:36245089:36245090:+_ENSG00000172915_ENST00000537702|perfect_dup|FALSE|FALSE (ssRNA)
RNA: GGGAGUUCUACAGUCCGACGAUCGUUCUUCCUUUAUCUUCAGUAUCUGUUCUGAUGCUCAUAAUGCCACCGAUUAAAAUCUAUAUUAAAAGCUACAAUGCUACCAGAAGCCAUGCCAGUGAUCAGAGUCCUCUGGUCAUGGGACAACAGAGGAUUGAGCAUCA
B2: chr1:45478652:45478653:+_ENSG00000126088_ENST00000246337|hu_hu|motif|central (ssRNA)
RNA: GGGAGUUCUACAGUCCGACGAUCGCAGGCCUCAGGAGAGCGACACGUGCUGAAAAAGUCCUGGGCAGCCCGGGUUUCCCGGAACUCUGGUAAGUAACGGCCUGCCUGGCGCAUGCACCAAACGGGAGUGUAGUCUGUUUCCUCCAACAGAGGAUUGAGCAUCA
B3: chr6:72301320:72301321:+_ENSMUSG00000058706_ENSMUST00000077783|mus_hu|FALSE|FALSE (ssRNA)
RNA: GGGAGUUCUACAGUCCGACGAUCUAGCCAGGACGGUCUGGAUCUCCUGAUUUCAUGAUCCGCCCGCCUCGGCCUCCCUACCUCUUCCUUUACUUAAUAAGAAUGCGGUCUAAAUUUUCAGGUGCCAAGCCCCCAAACUCCUCUCAACAGAGGAUUGAGCAUCA
B4: chr3:108421708:108421709:+_ENSMUSG00000040389_ENSMUST00000051145|mus_hu|FALSE|FALSE (ssRNA)
RNA: GGGAGUUCUACAGUCCGACGAUCGCCAAGAAGCACUUCGCUUUCUGUAAUUUCUUCUCCAGUUGCUUUACUCUGACAAAAUUCUACACAGCAUUCAUAAAGCAGGCCUUUCAUUACAAGCUGAAAUAAACGAUUGUUACUAGCCAACAGAGGAUUGAGCAUCA
B5: chr2:48026839:48026840:+_ENSG00000116062_ENST00000540021|hu_hu|hu_hu_hu_mus_False|78_98 (ssRNA)
RNA: GGGAGUUCUACAGUCCGACGAUCAUAGUGAGCCACUAGAGUCCUAAAUCUGGAACAAUGGCGAUCAUCCGAAAACUGGCCGAUGAAAAACUUGCCCAGUGAAGUGUCCACAAAGCAAACACCAUACACACGAGUGUGACCAGACAACAGAGGAUUGAGCAUCA
B6: chr6:110421769:110421770:-_ENSG00000112290_ENST00000392587|hu_hu|motif|central (ssRNA)
RNA: GGGAGUUCUACAGUCCGACGAUCUUUUUCUUACUCCAACCAAUCUACUUCAUCAAAUUCUGAAUCAUCUUCCGAAUCACGGUAUUCAACAGCAAUACGGCGAGACAGGAUGGUGGCAACAUCGUUUUCAAUGCGUUCAUGCUUCAACAGAGGAUUGAGCAUCA
B7: 27865549_27865761_3985_CDS_ENSMUSG00000026837_ENSMUST00000028280|mouse|control|control (ssRNA)
RNA: GGGAGUUCUACAGUCCGACGAUCUCUUGAACCUUCAUCUCCUUUCUGCCCAAACAGGCCCUGCUGUCCACGAGGGCCAGGUUCACCAUCUGCUCCCGAAGGGCCUGGCUGUCCAAUCGGGCCUUGAGGACCGGUAGGCCCAGGCAACAGAGGAUUGAGCAUCA
B8: chr12:48362563:48362564:+_ENSG00000134291_ENST00000256686|hu_hu|hu_hu_hu_mus_False|58_108 (ssRNA)
RNA: GGGAGUUCUACAGUCCGACGAUCUCCGAAGGGUGAAUCGAUAGACCCUUGCGGGGGAAACUGUAAUCACUUUGUAUUUCUAAAAAAAAGAAACGCCAAAAACUUUCCAAAAAGCGGGGGUGGGGUGAGGCGGGAGGGGGAGGUCAACAGAGGAUUGAGCAUCA
B9: chr3:10015032:10015033:+_ENSMUSG00000027533_ENSMUST00000029046|mus_mus|mus_mus_mus_hu_True|28_88 (ssRNA)
RNA: GGGAGUUCUACAGUCCGACGAUCGUUUUUACCAUCACAAGUGAUGAUACAGUCUGGCUUGGCCAUUGCGCCCAUUUUUCGCAAAGCUAUUCCCACUCCUAGCUCCUUCAUGUACUCAUCAAAGCCUUUGCUGUCCACCAGGCGCAACAGAGGAUUGAGCAUCA
B10: 58499947_58500067_473_3pUTR_ENSMUSG00000038668_ENSMUST00000055018|mouse|control|control (ssRNA)
RNA: GGGAGUUCUACAGUCCGACGAUCAACAUGAUGAACACGCAAACAGUGAUGCCCAGUCCCAUCACCAGCUUGCUCACUGUGUUCCAUUCUGUGGCUAGAUAUUUCCCACUCCGGUUAUAAAAGAAGGCGAUAGACUCAUUGUAGCAACAGAGGAUUGAGCAUCA
B11: chrX:71549400:71549401:+_ENSMUSG00000019087_ENSMUST00000019231|mus_hu|mus_mus_mus_hu_False|48_48 (ssRNA)
RNA: GGGAGUUCUACAGUCCGACGAUCGCAGUAGGAAGAGGGAAGCUCUUCAGUCCAGUGCGCUGCAGGGUGGGAAAGCAACAACACGGAACCAAUACUCCCCUCAACCCCCCCACUGGCACAGGGUCACACAAUCUGGGUCAAAGACAACAGAGGAUUGAGCAUCA
B12: chr9:79603372:79603373:-_ENSMUSG00000032330_ENSMUST00000034881|mus_mus|motif|central (ssRNA)
RNA: GGGAGUUCUACAGUCCGACGAUCCACGUGAAGACUGGGAUGACGACAUUAGUUCUGCUUCUUGGGAAAUGCAGCCAUAGCGGACAGAUAGAUGGCAUAGGCUGUGCCACCAAGCGUCAGAGCCAUUGUGGCUCUGUAGAGGAGCAACAGAGGAUUGAGCAUCA
B13: chr12:32660859:32660860:-_ENSMUSG00000002997_ENSMUST00000036497|mus_hu|motif|central (ssRNA)
RNA: GGGAGUUCUACAGUCCGACGAUCGUCACCUUGAUCAAUUACAUGCUCCCCAUCUUUGACCAAUUUUUCAAACAUGGCAUCGGAUACUUGAGACAUCUGCUCCGGAUCCAGAUUCUUAAACAGCAGGAUGUCUUUGCAAGCCUCCAACAGAGGAUUGAGCAUCA
B14: chr9:35286173:35286174:+_ENSMUSG00000038119_ENSMUST00000042842|mus_hu|FALSE|FALSE (ssRNA)
RNA: GGGAGUUCUACAGUCCGACGAUCAGUGUUAUUGUUACUUGAUGGAAUGUACGUCCACUUUAGCAUGAUCUGAGUAUCGCUGACAGCCUCUGUGUAUGCAAUGUGAGGUCCAGUUAUUGGACGGCUGGAAAAGCGAUUGGGGAACAACAGAGGAUUGAGCAUCA
B15: chr12:39756943:39756944:-_ENSG00000139116_ENST00000544797|hu_mus|hu_hu_hu_mus_False|1_48 (ssRNA)
RNA: GGGAGUUCUACAGUCCGACGAUCGGUUUGGCUGUUACCCCCAAGGGAAUCCUGCAAGAGUCUUGUCAGCUUAGAGUCUCUGUAAGGGACAUGUGUGGCUCUCUUGCUCUUGUCCCCCAAGGCGCUGAUUACAUUCCCAAGUGCCAACAGAGGAUUGAGCAUCA
B16: chr7:65705475:65705476:+_ENSG00000169902_ENST00000304842|hu_hu|hu_hu_hu_mus_True|38_68 (ssRNA)
RNA: GGGAGUUCUACAGUCCGACGAUCUCUAUUCGGUGAUGGCACUCCAUGGCAUGCUGGCCCAGGUAAAACACAGUCACAGAACUAAUCACCAGACACGCCAAUAGUAAGUUCUGCUUCAGCUUCCCAACCAUCUUGAUGUGGUUACAACAGAGGAUUGAGCAUCA
B17: chr4:57314706:57314707:+_ENSG00000128050_ENST00000264221|hu_mus|hu_hu_hu_mus_True|18_88 (ssRNA)
RNA: GGGAGUUCUACAGUCCGACGAUCCAGAAUUUCAAAAAUAGCUUGUGUAGCAUGACUCAUGAUGUCCACUUCAGUCUGCCCUAUAACAAGGCCAGCAAAACAGAAUUUUGCAGCAAUCAGCUGUUCCUCAGACCACUGUGGAUCCAACAGAGGAUUGAGCAUCA
B18: chr2:202488911:202488912:-_ENSG00000155755_ENST00000286196|hu_mus|hu_hu_hu_mus_False|1_48 (ssRNA)
RNA: GGGAGUUCUACAGUCCGACGAUCAUUGAAACAUUUUUCAUAAUCUCCAGUAGCAUUUCAGCAUUAUGUAACAAAAGCUCAAUUGUAAAUACACAUGUCUUAUAAAAAUACACUUAAAAACACGAGUGGGGAGCGCACAAAUACCAACAGAGGAUUGAGCAUCA
B19: chr6:114281168:114281169:-_ENSG00000196591_ENST00000368632|hu_hu|hu_hu_hu_mus_True|38_38 (ssRNA)
RNA: GGGAGUUCUACAGUCCGACGAUCUUCCAUUUUUCGGUAUAAACCAUAAUUUAGCAGCAAGUUAUGAGUCAUCCGGAUUCUAUGAGGCUUCAUGGGAUGACCCUGUCCAUAAUAAUAAUUGCCAAUAUCACCAUCAUAGUAGUACAACAGAGGAUUGAGCAUCA
B20: chr19:16212804:16212805:+_ENSG00000167460_ENST00000300933|hu_mus|hu_hu_hu_mus_False|1_78 (ssRNA)
RNA: GGGAGUUCUACAGUCCGACGAUCAACAAUUCUGGAGUGAAGGAAAGAUGUAACAUGCAAUUAAUUAAAAGCUCAGUCAGAAGGCACAUGGGCAACAAUGAUCACCCCAGCAUUCUCGCUUGGAAUGCUUAAAGACAGAUGUUUCAACAGAGGAUUGAGCAUCA
B21: chr8:74858975:74858976:-_ENSG00000154582_ENST00000284811|hu_mus|hu_hu_hu_mus_True|8_88 (ssRNA)
RNA: GGGAGUUCUACAGUCCGACGAUCGACCUUGUAGGUAAAAUACAUGCAUACUUUCGAUAGCACAUGUGAGGGGAUCUCUCUAAAAUUGACCUCGUUGGUUUCAUUCUCAGCAAACUGACCUGGACCACUCAACAUGGCCUUUAUCAACAGAGGAUUGAGCAUCA
B22: chr14:78183846:78183847:+_ENSG00000119705_ENST00000557342|hu_hu|hu_hu_hu_mus_False|58_108 (ssRNA)
RNA: GGGAGUUCUACAGUCCGACGAUCUCUGUCUCAAAAAUCUUCAUCAGAUGUUUGAGCUCCGUGCAAAGCCUUUGCUCUUCUAGUGUGAACGUGGAUCUAUGGGAGGGAAAGCACUGUCAGAAAAGGUAAUUUUUUUUUUAAAGACAACAGAGGAUUGAGCAUCA

In the test the target is T1, UNK ZnF1-3. Nature of the test: nsRBNS (natural sequence RNA bind-n-seq); RBNS binding buffer (assumed for nsRBNS): 25 mM Tris pH 7.5, 150 mM KCl, 3 mM MgCl2, 0.01% Triton X-100, 500 ug/ml BSA, 20 U/ml SUPERase-In, 4 C; UNK is unkempt and MSI1 is Musashi-1; names of the RNAs are library labels; protein concentration not given here; high values mean tight binding.
With B1, the binding signal was 1.28 enrichment R.

The molecule B2 gave a binding signal of 1.21 enrichment R.

Molecule B3 registered a binding signal of 0.767 enrichment R.

The molecule B4 displayed a binding signal of 1.22 enrichment R.

Consider B5, for which the binding signal was 1.34 enrichment R.

B6 displayed a binding signal of 0.834 enrichment R.

B7 yielded a binding signal of 0.789 enrichment R.

Consider B8, for which the binding signal was 2.08 enrichment R.

B9 gave a binding signal of 0.689 enrichment R.

For the molecule B10, the binding signal was 1 enrichment R.

Molecule B11 showed a binding signal of 1.44 enrichment R.

For B12, the binding signal stood at 1.26 enrichment R.

For B13, the binding signal was determined as 1.19 enrichment R.

The molecule B14 showed a binding signal of 1.04 enrichment R.

Molecule B15 returned a binding signal of 0.544 enrichment R.

For the molecule B16, the binding signal was determined as 0.67 enrichment R.

Regarding B17, the binding signal came to 1.07 enrichment R.

B18 yielded a binding signal of 1.45 enrichment R.

As to B19, the binding signal amounted to 0.862 enrichment R.

B20 registered a binding signal of 1.5 enrichment R.

Molecule B21 had a binding signal of 0.617 enrichment R.

B22 gave a binding signal of 1.5 enrichment R.
